The structures appear in SMILES notation. This is one part of the list.

The experiment concerns HSkMC (human skeletal muscle cells). Put plainly: cytotoxicity call (relative viability < 0.9). The settings on record: 10 µM.
Consider `COc1ccc(CN(C)C[C@H]2OCCCC[C@@H](C)Oc3ccc(NC(=O)Nc4cccc5ccccc45)cc3C(=O)N([C@H](C)CO)C[C@H]2C)cc1`, for which the cytotoxicity call was “inactive”. Consider `C[C@@H]1CN([C@H](C)CO)C(=O)c2cccc(NC(=O)C3CCOCC3)c2O[C@@H]1CN(C)S(=O)(=O)c1ccccc1`, for which the cytotoxicity call was “inactive”. The entry for `C[C@@H]1CN([C@H](C)CO)C(=O)CCCn2nncc2CO[C@@H]1CN(C)S(=O)(=O)c1ccc(-c2ccccc2)cc1` is “inactive”; for `CC(C)NC(=O)N(C)C[C@H]1Oc2ccc(NC(=O)Cc3ccccc3)cc2CC(=O)N([C@H](C)CO)C[C@@H]1C` it is “inactive”; for `Cc1noc(C)c1NC(=O)Nc1ccc2c(c1)C(=O)N([C@@H](C)CO)C[C@@H](C)[C@H](CN(C)Cc1ccc(Cl)c(Cl)c1)OCCCC[C@H](C)O2` it is “inactive”. For the compound `C[C@@H]1CN([C@H](C)CO)C(=O)Cc2cc(NS(=O)(=O)c3ccc(F)cc3)ccc2O[C@@H]1CN(C)S(=O)(=O)c1cn(C)cn1`, the cytotoxicity call was “inactive”. Regarding `C[C@@H]1CN([C@H](C)CO)C(=O)c2cc(NS(=O)(=O)c3ccc(F)cc3)ccc2O[C@@H](C)CCCCO[C@@H]1CN(C)Cc1ccc2c(c1)OCO2`, the cytotoxicity call is “inactive”.

As for `C[C@@H]1CN([C@H](C)CO)C(=O)c2c(c3ccccc3n2C)-c2ccccc2CO[C@@H]1CN(C)Cc1ccc(O)cc1`, the cytotoxicity call was “inactive”. For the compound `COc1cc2c(cc1OC)C(=O)C(CC1CCN(Cc3ccccc3)CC1)C2.Cl` (centres undefined), the cytotoxicity call was “inactive”.

`C[C@@H]1CN([C@H](C)CO)C(=O)Cc2cc(NC(=O)Cc3cn(C)c4ccccc34)ccc2O[C@@H]1CN(C)CC1CCCCC1`: the cytotoxicity call is “inactive”. As to `CCCCOC(=O)c1ccc(O)cc1`, the cytotoxicity call is “inactive”. The value for `N=C(N)NCCCCN.O=S(=O)(O)O` was “inactive”. Regarding `C[C@@H]1CN([C@H](C)CO)C(=O)c2cccc(NC(=O)c3ccncc3)c2O[C@H]1CN(C)S(=O)(=O)c1ccc(F)cc1`, the cytotoxicity call was “inactive”. `C[C@@H]1CCCCO[C@@H](CN(C)CC2CCCCC2)[C@@H](C)CN([C@H](C)CO)C(=O)c2cc(NC(=O)Nc3ccc(F)cc3)ccc2O1`: the cytotoxicity call is “inactive”. Turning to `C[C@@H]1CN([C@@H](C)CO)S(=O)(=O)c2ccc(-c3cccnc3)cc2O[C@H]1CN(C)C(=O)c1cccc(F)c1`, the cytotoxicity call was “inactive”. Take `CCc1nc2ccc(C(=O)N3CCN(C(=O)c4ccco4)CC3)cn2c1N(C)C(=O)COc1ccccc1`: the cytotoxicity call is “inactive”. With `COc1cc(C(=O)OCCCN2CCN(CCCOC(=O)c3cc(OC)c(OC)c(OC)c3)CC2)cc(OC)c1OC`, the cytotoxicity call is “inactive”.

Regarding `CC(C)NC(=O)N(C)C[C@@H]1OCCCC[C@@H](C)Oc2ccc(NC(=O)C3CCCCC3)cc2C(=O)N([C@H](C)CO)C[C@H]1C`, the cytotoxicity call was “inactive”.

As for `Cc1noc(C)c1NC(=O)N(C)C[C@H]1Oc2ccc(NC(=O)NC(C)C)cc2CC(=O)N([C@H](C)CO)C[C@H]1C`, the cytotoxicity call is “inactive”.

As for `CN1Cc2c(Cl)cc(Cl)cc2[C@H](c2cccc(S(=O)(=O)NCCOCCOCCNC(=O)NCCCCNC(=O)NCCOCCOCCNS(=O)(=O)c3cccc([C@@H]4CN(C)Cc5c(Cl)cc(Cl)cc54)c3)c2)C1`, the cytotoxicity call is “inactive”. With `CCOC(=O)/C=C(C)/C=C/C=C(C)/C=C/c1c(C)cc(OC)c(C)c1C`, the cytotoxicity call is “inactive”. The value for `C[C@H]1CCCCO[C@@H](CN(C)Cc2ccc3c(c2)OCO3)[C@@H](C)CN([C@@H](C)CO)C(=O)c2cc(NS(=O)(=O)c3ccc(Cl)cc3)ccc2O1` was “inactive”.

As for `C[C@@H]1CN([C@@H](C)CO)C(=O)c2cc(NC(=O)CCC(F)(F)F)ccc2O[C@@H]1CN(C)Cc1ccc(-c2ccccc2)cc1`, the cytotoxicity call was “inactive”. The entry for `C[C@@H]1CN([C@@H](C)CO)C(=O)Cc2cc(NC(=O)Cn3cnnn3)ccc2O[C@@H]1CN(C)S(=O)(=O)c1cn(C)cn1` is “inactive”; for `Cc1noc(C)c1S(=O)(=O)N(C)C[C@H]1Oc2c(NC(=O)C3CCCCC3)cccc2C(=O)N([C@H](C)CO)C[C@H]1C` it is “inactive”; for `COc1ccc(CN(C)C[C@H]2OCCCC[C@@H](C)Oc3ccc(NS(=O)(=O)c4ccc(Cl)cc4)cc3C(=O)N([C@H](C)CO)C[C@@H]2C)cc1` it is “inactive”.

For `COc1ccc(S(=O)(=O)N(C)C[C@H]2Oc3c(NS(=O)(=O)c4ccccc4)cccc3C(=O)N([C@H](C)CO)C[C@H]2C)cc1`, the cytotoxicity call was “inactive”. `O=C(CN1CCOCC1)N[C@@H]1CC[C@H](CCNC(=O)Nc2cc(F)ccc2F)O[C@@H]1CO`: the cytotoxicity call is “inactive”.

As for `COC(=O)[C@H](Cc1ccccc1)N1CC2=CC(=O)[C@H](C3CC3)[C@H]2[C@@H]1[C@@H](O)CCn1cc(-c2cccc(/C=C/C(=O)NO)c2)nn1`, the cytotoxicity call is “inactive”.

(Values after the antibiotic and cytotoxicity screens of Wong et al. (2023).)
